From ChEMBL document CHEMBL1201862, “PubChem BioAssay data set” (2004)
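Test compounds were applied to cells in 96-well plates for 48 hours at 5 doses. The concentration for 50% growth inhibition is given as GI50.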 Active and inactive are the calls of the source. Rule as the data show it: active = GI50 up to about 1.1 µM and inactive = higher.

What follows are molecules tested on NCI-H322M (assay: NCI anticancer screen, dose series, 48 h).
`C[N+]1(C)CCc2cc(O)c(O)cc2C1Cc1ccc(O)c(O)c1` (configuration not stated) was tested, and the GI50 was inactive: > 100 µM.
`O=C1OC(C(O)C(O)C(O)CO)C(O)C1O` (configuration not stated) was tested, and the GI50 was inactive: > 100 µM.
For `CC(=O)Nc1ccc(-c2cc(C(=O)O)c3cc4ccccc4cc3n2)cc1`, the GI50 was inactive: > 100 µM.
With `O=C(COc1ccccc1)NS(=O)(=O)c1ccccc1` the GI50 was inactive: > 100 µM.
`Cc1ccc(S(=O)(=O)N2CCCN(S(=O)(=O)c3ccc(C)cc3)CC2)cc1` was tested, and the GI50 was inactive: > 100 µM.
For `C=Cc1cnc([N+](=O)[O-])n1C`, the GI50 was inactive: 28.1 µM.
In the case of `CC12CCC(O)CC1CCC1C2CCC2(C)C(C(=O)CC(O)C(F)(F)F)CCC12` (configuration not stated), the GI50 is reported as inactive: 21.9 µM.
For `O=c1oc2ccccc2c2nc3ccccc3cc12`, the GI50 was inactive: 48.6 µM.
`Nn1c(CCCCCCCCc2nnc(COc3ccc(Cl)cc3Cl)n2N)nnc1COc1ccc(Cl)cc1Cl` was tested, and the GI50 was inactive: 87.1 µM.
`COc1ccc(N2C=Nn3c(nc4sc(C)c(C)c4c3=O)C2)cc1` was tested, and the GI50 was inactive: > 100 µM.
With `NCCCCNCCCNC(=O)c1nc(-c2csc(CCN)n2)sc1Cl` the GI50 was inactive: > 100 µM.
In the case of `COc1cc(/C=C2\CCC(C)(CN(C)C)C2=O)cc(OC)c1OC` (configuration not stated), the GI50 is reported as inactive: > 100 µM.
In the case of `COC(=O)C(Cc1ccccc1)C(=O)NC(CNC(=O)OCc1ccccc1)C(=O)OCc1ccccc1` (configuration not stated), the GI50 is reported as inactive: 65.9 µM.
`CC(C)NCC(O)c1ccc(O)c2ncccc12` (configuration not stated) was tested, and the GI50 was inactive: 62.5 µM.
In the case of `COc1cccc(/N=C/c2cc3cc(Br)ccc3nc2Cl)c1`, the GI50 is reported as inactive: 23.6 µM.
For `Nc1ncnc2c1ncn2-c1ccc([N+](=O)[O-])cn1`, the GI50 was inactive: > 100 µM.
For `O=C(O)CCC(NC(=O)c1ccc(OCc2nc3cc(C(F)(F)F)ccc3nc2-c2ccccc2)cc1)C(=O)O` (configuration not stated), the GI50 was inactive: > 100 µM.
In the case of `COc1cc(NCC(C#N)C#N)ccc1/N=N/c1ccc(Cl)cc1`, the GI50 is reported as inactive: 35 µM.
`COC1/C=C/C(C)C(C(C)C(OC)C(C)CCC(=O)C(C)C(C/C=C/N(C)C=O)OC)OC(=O)/C=C/C=C(\C)CC(OC)CC2=CC(=O)O[C@H](C2)C(C)C(OC)CC(OC)/C=C/C(C)C(OC)C1` (some centres not stated) was tested, and the GI50 was active: 0.0121 µM.
`N#C/C(=C\c1ccc[nH]1)C(=O)c1ccccc1` was tested, and the GI50 was inactive: > 100 µM.
`COC(=O)C1=CC2C(=O)c3ccccc3C1(c1ccccc1)N2C1CCCCC1` (configuration not stated) was tested, and the GI50 was inactive: 33.4 µM.
In the case of `O=C(CCN1CC2CCC(CC2)C1)c1cccs1`, the GI50 is reported as inactive: > 100 µM.
`O=C1N(CN2CCOCC2)CN(CN2CCOCC2)C(=O)N1Cc1ccccc1` was tested, and the GI50 was inactive: > 100 µM.
In the case of `Cc1ccc(-c2n[nH]c(=O)n2N2C(=O)c3ccccc3C2=O)cc1`, the GI50 is reported as inactive: > 100 µM.
With `CCN(CC)C(=S)SS(C)(=O)=O` the GI50 was inactive: 44.6 µM.
In the case of `Clc1ccc(-c2ccc(-c3nnc(CCc4nnc(-c5ccc(-c6ccc(Cl)cc6)o5)o4)o3)o2)cc1`, the GI50 is reported as inactive: > 100 µM.
In the case of `COc1ccc(OC)c(/C=C/NC=O)c1`, the GI50 is reported as inactive: > 100 µM.
With `C=C(C1=CC(=O)C(C)(C)O1)[C@@H]1CC=C([C@@H]2CC[C@H]3[C@@]2(C)CC[C@H]2C(C)(C)C(=O)[C@H](OC(=O)CC(C)(O)CC(=O)O)C[C@]32C)[C@H](O)O1` (some centres not stated) the GI50 was inactive: 39.6 µM.
For `CCc1n[nH]c(=O)n1NC(=O)c1ccccc1C(=O)O`, the GI50 was inactive: > 100 µM.
`COc1cc2c3c(c1OC)Oc1ccc(cc1)CC1c4c(cc(OC)c(OC)c4Oc4ccc(cc4)CC3N(C)CC2)CCN1C` (configuration not stated) was tested, and the GI50 was inactive: 23.7 µM.
`Cc1ccc(C(=O)CCC2C(=O)CC(C)(C)CC2=O)cc1` was tested, and the GI50 was inactive: > 100 µM.
For `O=C1NC2OC(CO)C(O)C(O)C2O1` (configuration not stated), the GI50 was inactive: > 100 µM.
`CCN(CC)CCCNc1nncc2c(C)c3[nH]c4ccccc4c3cc12` was tested, and the GI50 was active: 0.416 µM.
`COc1ccc(OC(C)=O)c2c1CCC=CC2=O` was tested, and the GI50 was inactive: 18.7 µM.
`CCOC(=O)NNC(=O)C1CSC(c2ccccc2)N1C(C)=O` (configuration not stated) was tested, and the GI50 was inactive: > 100 µM.
In the case of `CC1=NOC(=O)/C1=C/c1ccc([N+](=O)[O-])cc1`, the GI50 is reported as inactive: > 100 µM.
For `C=CC[C@]12C[C@@H](C(=O)OC)N(C(=O)OC)[C@H]1N(S(=O)(=O)c1ccccc1)c1ccccc12`, the GI50 was inactive: > 100 µM.
With `CC1CCc2sc3nc(S)n(C)c(=O)c3c2C1` (configuration not stated) the GI50 was inactive: 34 µM.
`c1c2c(cc(-n3nnc4c3CCCCCC4)c1-n1nnc3c1CCCCCC3)CCCCCC2` was tested, and the GI50 was inactive: 12.6 µM.
`N#CC(Cc1ccccc1)N(CCC1=CCCCC1)C(c1ccccc1)c1ccccc1` (configuration not stated) was tested, and the GI50 was inactive: > 100 µM.
`CC[C@]1(Cc2ccc(OC)c(OC)c2)C=[N+]([O-])O[C@H](OCc2ccccc2)[C@@H]1OC(C)=O` was tested, and the GI50 was inactive: 40.2 µM.
For `Cc1ccc(C(=O)O)cc1S(=O)(=O)Nn1cnc2ccc(S(=O)(=O)Nc3ccccc3C(=O)O)cc2c1=O`, the GI50 was inactive: > 100 µM.
In the case of `CC(=O)/C(=C/NC(=S)c1ccncc1)C(=O)Nc1ccccc1C`, the GI50 is reported as inactive: > 100 µM.
For `C=C1C(=O)O[C@H]2C/C(C=O)=C\[C@H]3O[C@H]3/C(COC(=O)C(C)C)=C/CC12` (some centres not stated), the GI50 was inactive: 13.1 µM.
In the case of `O=C1Nc2ccccc2/C1=C1/Nc2ccccc2/C1=N/OCCO`, the GI50 is reported as inactive: 1.95 µM.
With `C[S+]([O-])c1ncc2c(n1)-c1ccccc1OC2` (configuration not stated) the GI50 was inactive: 48.1 µM.
In the case of `CC1CCCP(=O)(c2ccccc2)CC1` (configuration not stated), the GI50 is reported as inactive: > 100 µM.
With `O=C(Nc1ccccc1)OCCN=C1c2ccccc2C(Br)C(Br)c2ccccc21` (configuration not stated) the GI50 was inactive: 15.8 µM.
`NC1=CC(C(=O)c2ccncc2)c2nc3ccccc3nc21` (configuration not stated) was tested, and the GI50 was inactive: > 100 µM.
For `CC1(C)OC2C(O)C(CO)OC2(C(F)F)O1` (configuration not stated), the GI50 was inactive: > 100 µM.
`CCOC(=O)c1sc2ncnc(N)c2c1C` was tested, and the GI50 was inactive: 49.2 µM.
`Brc1ccc2[nH]cc([C@H]3CN[C@@H](c4c[nH]c5ccc(Br)cc45)CN3)c2c1` was tested, and the GI50 was inactive: 2.8 µM.
In the case of `CC1(C)CCc2cc3c(cc2O1)OC(C)(C)C1c2c(ccc4c2CCC(C)(C)O4)OC31` (configuration not stated), the GI50 is reported as inactive: > 100 µM.
For `COC(=O)c1ccc(C)cc1/C=C1\Cc2ccc(C)cc2C1=O`, the GI50 was inactive: 29.9 µM.
In the case of `CCO/C=C(\C(=O)OC)S(=O)(=O)c1ccc(C)cc1`, the GI50 is reported as inactive: > 100 µM.
`CCn1c2ccccc2c2cc(/N=N\c3ccc(C#N)cc3)ccc21` was tested, and the GI50 was inactive: 40.6 µM.
For `Cc1ccc(O)c(Cc2nc3ccccc3nc2-c2cccc(Cl)c2)c1`, the GI50 was inactive: > 100 µM.
In the case of `CCOC(=O)C1=CNC(C(=O)OCC)C1c1cccn1-c1ccc(Cl)cc1[N+](=O)[O-]` (configuration not stated), the GI50 is reported as inactive: 23.2 µM.
In the case of `CC(C)(C)c1cc(C2=NNC(c3ccccc3)C2)cc(C(C)(C)C)c1O` (configuration not stated), the GI50 is reported as inactive: 20 µM.
`Cc1ccc(S(=O)(=O)c2c(O)c3ccccc3n(C)c2=O)cc1` was tested, and the GI50 was inactive: > 100 µM.
For `CC(C)N(C(C)C)P(OCCC#N)OC1CC(n2cnc3c(=O)[nH]cnc32)OC1COC(=O)NCCCCCCNC(=O)OC(C)(C)c1ccc(-c2ccccc2)cc1` (configuration not stated), the GI50 was inactive: 78.3 µM.
With `O=C1C=CC(=O)N1Nc1ccc([N+](=O)[O-])cc1[N+](=O)[O-]` the GI50 was inactive: > 100 µM.
In the case of `CCOC(=O)C(/N=N\c1ccc(S(N)(=O)=O)cc1)C(C)=O` (configuration not stated), the GI50 is reported as inactive: > 100 µM.
For `Cn1c(=O)c2[nH]c(C3CC(=O)CC(c4nc5c([nH]4)c(=O)n(C)c(=O)n5C)N3)nc2n(C)c1=O` (configuration not stated), the GI50 was inactive: 97.5 µM.
For `COc1ccc(-c2c(C(C)=O)c(-c3ccccc3)n(C3OC(CO)C(O)C(O)C3O)c(=S)c2C#N)cc1` (configuration not stated), the GI50 was inactive: > 100 µM.
With `CSc1nncc2[nH]c(C)nc12` the GI50 was inactive: > 100 µM.
`COC(=O)C(C(=O)C(=O)Nc1ccccc1OC)c1csc(-n2nc(-c3ccccc3)cc2-c2ccccc2)n1` (configuration not stated) was tested, and the GI50 was inactive: > 100 µM.
In the case of `COc1ccc(C2=Nc3ccccc3NC(=O)C2)cc1`, the GI50 is reported as inactive: 85.1 µM.
With `COc1ccc(Cc2cc3c(cc2OCC(=O)O)OCO3)cc1` the GI50 was inactive: > 100 µM.
`COCCOCOC(C)(C)[C@H](CCOC(C)=O)O[Si](c1ccccc1)(c1ccccc1)C(C)(C)C` was tested, and the GI50 was inactive: 16.3 µM.
`C=CCN1C(=O)/C(=C/c2ccco2)N=C1SC/C=C/C` was tested, and the GI50 was inactive: 92 µM.
For `CN(CCNC(=S)c1cn(C)c2c1ccc1ccccc12)CCNC(=S)c1cn(C)c2c1ccc1ccccc12`, the GI50 was inactive: > 100 µM.
For `Cc1cccc(C)c1/N=N/c1ccc(O)c(CN(C)C)c1`, the GI50 was inactive: > 100 µM.
`CC(=O)OC1CC(O)CC2=CCC3C4CCC(C(C)(O)C(O)CC5COC(=O)C5C)C4(C)CCC3C21C` (configuration not stated) was tested, and the GI50 was inactive: > 25 µM.
With `COc1ccc2oc(=O)c(-c3cc4c(c(C)n3)c(=O)oc3ccc(OC)cc34)cc2c1` the GI50 was inactive: > 100 µM.
`CCCCSC(=CC(=O)c1cccc(C(=O)C=C(SCCCC)SCCCC)n1)SCCCC` was tested, and the GI50 was inactive: > 100 µM.
For `CCOc1nc2sc3c(c2c(=O)n1CCSSCCn1c(OCC)nc2sc4c(c2c1=O)CCCC4)CCCC3`, the GI50 was inactive: > 100 µM.
`COc1ccc(NC(=O)c2oc3cc(O)ccc3c(=O)c2C)c([N+](=O)[O-])c1` was tested, and the GI50 was inactive: > 100 µM.
`Cc1nc(C)c(N2CCN(Cc3ccccc3)CC2)c(O)n1` was tested, and the GI50 was inactive: > 100 µM.
With `COc1ncc(C#CC(=O)c2ccccc2OC)c(OC)n1` the GI50 was inactive: 19 µM.
For `CC(C)NC(=O)OCc1c2c(n(C)c1COC(=O)NC(C)C)-c1cc(Cl)c(Cl)cc1CC2`, the GI50 was inactive: 51.2 µM.
`Cc1cc(Cl)ccc1NC1=NC(=O)C(CC(=O)Nc2ccc(Cl)cc2Cl)S1` (configuration not stated) was tested, and the GI50 was inactive: > 100 µM.
For `O=C(/C=C/c1ccsc1)c1ccco1`, the GI50 was inactive: 16.4 µM.
For `Cc1c(/C=N/NC(=O)c2ccccc2)c(=O)n(-c2ccccc2)n1C`, the GI50 was inactive: > 100 µM.
With `C/C1=C\[C@H](C)C[C@H](C)OC(=O)[C@H](C)NC(=O)[C@@H](Cc2ccc(O)c(Br)c2)N(C)C(=O)[C@H](C)NC(=O)[C@@H](C)C1` the GI50 was active: 0.413 µM.
`CCCNC1=C2CC(C)CC(OC)[C@@H](O)[C@H](C)/C=C(\C)C(OC(N)=O)C(OC)/C=C\C=C(/C)C(=O)NC(=CC1=O)C2=O` (some centres not stated) was tested, and the GI50 was active: 0.0631 µM.
In the case of `CCOC(=O)CN.CCOC(=O)Nc1ccc(S(=O)(=O)OC)cc1.CCOC(=O)Nc1ccc(S(=O)(=O)OC)cc1`, the GI50 is reported as inactive: > 50 µM.
For `O=c1c(C(c2ccccc2)c2c(O)oc3cc(O)ccc3c2=O)c(O)oc2cc(O)ccc12`, the GI50 was inactive: > 100 µM.
For `Cc1ccc(S(=O)(=O)N2CCCSCC2)cc1`, the GI50 was inactive: > 100 µM.
In the case of `c1csc(-c2ccsc2-c2cccs2)c1`, the GI50 is reported as inactive: > 100 µM.
`CN(C)CCn1c(=O)c2ccc(NCCN3CCNCC3)c3c(=O)c4ccccc4n(c1=O)c23` was tested, and the GI50 was active: 0.815 µM.
With `COc1ccc2[nH]c3c(O)nncc3c2c1` the GI50 was inactive: > 100 µM.
